From patent publication US9340769B2 (priority 2008, dated 2016)

Test system: P. acnes
Assay: Tissue chamber model: MIP-2 in tissue chamber fluid by ELISA after P. acnes injection
Conditions: sialidase-immunized vs GFP-immunized; 3 days after P. acnes 10^7 CFU

B1: sialidase: recombinant P. acnes cell wall-anchored sialidase (gi|50843035) 6×NH fusion protein; enzyme and, with Freund adjuvants, vaccine (protein)
chain: MTLTTKLSALAIAGIMAVIGAPMVTQSAMASGRAPAPDAATTQPKLVTGDITSTDQSGTHLFFGKNIVRNAKGAIMKVDRTWPAAVPAPLPDVRADSSTRMLLGPVVDLAVNEHPAGVFYRIPALATASNGDLLASYDLRPGSAADAPNPNSIVQRRSRDNGRTRGPQTVIHAGTLGRRKVGYSDPSYLVDPATGHILNFHVKSYDRGFATSEVGTDPDDRHVLHAEVSTSTDNGHTWTYRDITREITPDPTTRTRFVASGQGIALLHGPHAGGLIAQMTVRNSVGQQAQSIYSDDHGITWHAGNPVGRMMDENKVVELSDGTLMLNSRDAARSGRRKVAYSHDGGLTWGPVKLVDDLIDPTNNAQIIRAYPNARAGSAKARILLFTNARNATERVNGTLSVSCDDGRTWVSHQTYMPGEVGYTTAAVQSDGALGVLWERDGIRYSTIPMGWLNSVCPVAPSGRPTSGEPTSGTSLPLTATPSGSLHGGASSRPTSLPHTGD
modifications: left off: small tags and cut ends
- P. acnes-induced increase of MIP-2 cytokine, reduced by: 61%
